# The campaign covered roughly 94,000 compounds. About 6,200 (6.6%) were called active. The shares of active, inactive and inconclusive entries below differ from those in the screen. Calls follow the shape of the dose curve; as a rule, active = well fitted inhibition curve with a large enough effect; inconclusive = small, poorly fitted or top-dose-only effect; inactive = flat fitted curve, though single readings scatter. Where the call is inconclusive, the potency comes from a doubtful curve fit.
# Test: Cytotoxic Profiling in HEK 293 Cell Line of Diverse Libraries Using Quantitative High-Throughput Screening; also: nearly all actives have a fitted effect of over 60% in size
# Details: HEK 293 viability, ATP luminescence (CellTiter-Glo), 48-72 h; series mostly up to 115 µM
# Method in brief: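 Cells seeded first (HEK 293, 250 cells/well), then compound added by pintool. Incubation ran 48 or 72 hr at 37 degree Celsius. CellTiter-Glo was added and luminescence imaged after 10 min at room temperature.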
# Potency is read from the fitted curve at half-maximal effect; tags tell the direction and shape of the fitted curve.
row,Compound,Potency
1,Cc1cccc(OCC(=O)c2ccc3c(c2)N(C(C)C(=O)Nc2ccccc2)C(=O)CO3)c1C (stereo not given),"inconclusive: 31.6 µM [inhibitor, full curve]"
2,CCc1cc(=O)n(CC(=O)Nc2cc(C)ccc2OC)c(-c2ccccc2)n1,"inconclusive: 79.4 µM [inhibitor, single point]"
3,Cc1cccc(C(=O)N2CCC(OC3CCN(Cc4ccccc4)CC3)CC2)c1,"inconclusive: 79.4 µM [inhibitor, partial curve, poor fit]"
4,CC(C)N1CCN(C(=O)c2cc3n(n2)CC(c2ccc(Br)cc2)OC3)CC1 (stereo not given),"inconclusive: 44.7 µM [inhibitor, partial curve]"
5,CCOc1ccccc1C1NC(=O)N(CC(=O)Nc2ccc(OC)c(Cl)c2)C2=C1C(=O)OC2 (stereo not given),inactive
6,O=C(C1CCN(S(=O)(=O)c2cccs2)CC1)N1CCC(c2ccccc2)CC1,"inconclusive: 50.1 µM [inhibitor, partial curve, poor fit]"
7,CCC(C(=O)NCCn1ccn2nc(-c3ccc(OC)cc3)cc2c1=O)c1ccccc1 (stereo not given),"inconclusive: 50.1 µM [inhibitor, partial curve, poor fit]"
8,Cc1ccc(CN[C@@H]2CO[C@H](CNC(=O)c3cccs3)[C@H]2O)cc1,inactive
9,Cc1cn2nc(C(=O)NCc3cccc(Cl)c3)cc2c(N2CCSCC2)n1,"inconclusive: 28.2 µM [inhibitor, full curve]"
10,CC(C)CNC(=O)C1CCc2sc(C(=O)N3CCCCCC3)cc2C1 (stereo not given),"inconclusive: 50.1 µM [inhibitor, partial curve, poor fit]"
11,Cc1csc(NC(=O)C2c3ccccc3C(=O)N(Cc3ccccc3)C23CCCC3)n1 (stereo not given),"inconclusive: 89.1 µM [inhibitor, single point]"
12,O=C(NCc1cccc(F)c1)[C@@H]1C[C@@H](c2ccc(F)cc2)N([S+](=O)([O-])c2ccccc2)C1,"inconclusive: 28.2 µM [inhibitor, full curve]"
13,CNC(=O)CCn1ncc2cc(OC3CCc4cccc(-c5ccnc(OC)c5)c43)ccc21 (stereo not given),"inconclusive: 50.1 µM [inhibitor, partial curve, poor fit]"
14,Fc1ccc(CCc2nc(C3CCOC3)no2)cc1F (stereo not given),"inconclusive: 89.1 µM [inhibitor, single point]"
15,CCNc1nc2c(s1)C(c1cccnc1)CC(=O)N2 (stereo not given),inactive
16,CCCc1nc(C(=O)N2CCC3(CC2)C(=O)N(C)c2ccccc23)cs1,"inconclusive: 79.4 µM [inhibitor, partial curve, poor fit]"
17,O=C(NC1CCN(c2ccnc3ccnn23)CC1)c1ccccc1Cl,inactive
18,O=C(NCc1cccc(C(F)(F)F)c1)C1CCCN1Cc1ccc(-c2cncnc2)cc1 (stereo not given),active: 50.1 µM
19,COc1ccc(N2CCN(c3nc(C(=O)NCc4ccc(C)c(C)c4)cs3)CC2)cc1,active: 12.6 µM
20,CC1=C(C(=O)OC(C)C)C(c2ccccc2C)N2C(CC(=O)NCC3CC3)=CSC2=N1 (stereo not given),active: 10 µM
21,CCn1cc(S(=O)(=O)N2CCC(c3ncc(C)n3CCOC)C2)cn1 (stereo not given),inactive
22,Cc1cc(-c2nccc3c(=O)cc(N(C)c4ccccc4)oc23)ccn1,"inconclusive: 100 µM [inhibitor, partial curve]"

row,Compound,Potency
1,O=C(NCC(=O)N1CCN(c2ccccn2)CC1)c1cc2ccccc2[nH]1,inactive
2,CC(Cn1cncn1)Nc1ccc(-c2nc(Cc3ccc(F)cc3)no2)cn1 (stereo not given),"inconclusive: 89.1 µM [inhibitor, single point]"
3,O=C(NCc1ccc(F)cc1)c1cnc2n[nH]c(-c3ccccc3)c2n1,"inconclusive: 70.8 µM [inhibitor, partial curve, poor fit]"
4,CC(C)CNC(=O)N1CC(Oc2ccc(-c3noc(C4CCOCC4)n3)cc2)C1,"inconclusive: 7.94 µM [inhibitor, partial curve, poor fit]"
5,O=S(=O)(c1cccc2nsnc12)N1CCC2(CCC2N2CCOCC2)CC1 (stereo not given),inactive
6,O=C1CCc2cc(S(=O)(=O)CCC(=O)N3CCC(CCOc4ccc(F)cc4)C3)ccc2N1 (stereo not given),"inconclusive: 31.6 µM [inhibitor, partial curve, poor fit]"
7,O=C1NCc2ccccc2CC12CCN(Cc1ccc(-c3ccccc3)cc1)CC2,active: 31.6 µM
8,Cc1nc(-c2ccc(F)cc2)n(Cc2cccc(C#N)c2)c(=O)c1CCO,"inconclusive: 44.7 µM [inhibitor, partial curve, poor fit]"
9,Cc1c(CN(C)c2cc(C3CC(O)C3)nc(N)n2)[nH]c2ccccc12 (stereo not given),inactive
10,CCOc1cc(C(=O)N2CCN(c3cc(-c4ccc(F)cc4)[nH]n3)CC2)cc(OCC)c1OCC,"inconclusive: 79.4 µM [inhibitor, partial curve]"
11,COCC1(CNS(=O)(=O)c2ccc(F)cc2)C[C@@H](O)[C@@H](O)C1 (stereo not given in full),inactive
12,CCCCS(=O)(=O)N1CCC2(CCC(=O)N(Cc3ccccc3)C2)CC1,inactive
13,CN(c1cc(=O)c2ccnc(Nc3ccc(F)c(Cl)c3)c2o1)C1CCOCC1,"inconclusive: 89.1 µM [inhibitor, partial curve]"
14,O=C(c1ccccc1Cl)N1CCCC2(C1)Nc1cccnc1NC2=NC1CCCC1 (stereo not given),inactive
15,O=C(NCCc1ccccc1)C1CCc2nnc(C3CCN([S+](=O)([O-])c4ccccc4Cl)CC3)n21 (stereo not given),inactive
16,COc1cc(Cl)cc(CN2CCN(c3ncccc3C#N)CC2)c1OC,"inconclusive: 56.2 µM [inhibitor, partial curve, poor fit]"
17,COc1ccc(CCNC(=O)c2ccc3nnc(-c4cccnc4)n3c2)cc1,inactive
18,Cc1ccc(CN2CCC3(CC2)CC(=O)N(c2ccccc2)c2ccccc2O3)cc1,active: 31.6 µM
19,CC1(C)CN(C(=O)c2ccccc2N2CCC(=O)NC2=O)CC[C@]1(C)O,inactive
20,O=c1[nH]c(N2CCOCC2)nc2c1CCN(S(=O)(=O)c1ccc3c(c1)CCC3)CC2,"inconclusive: 50.1 µM [inhibitor, partial curve, poor fit]"
21,COC(=O)NC1CCN(Cc2cccc(-c3ccccc3OC)c2)CC1,"inconclusive: 89.1 µM [inhibitor, single point]"
22,COCCN1CCCCCC(O)c2cc(C(=O)NCCc3ccccc3)ccc21 (stereo not given),"inconclusive: 89.1 µM [inhibitor, partial curve, poor fit]"

row,Compound,Potency
1,Cc1cccc(Cl)c1CNC(=O)c1c(C)noc1-c1ccccc1Cl,"inconclusive: 50.1 µM [inhibitor, partial curve, poor fit]"
2,O=C(c1cccc(F)c1)N1CCC2(CC1)NC(=O)N(Cc1ccc(F)cc1)C2=O,"inconclusive: 89.1 µM [inhibitor, partial curve, poor fit]"
3,CCNc1cc(N2CCC(CCC(=O)NCc3ccc(OC)cc3)CC2)ncn1,"inconclusive: 100 µM [inhibitor, single point]"
4,CCn1nc(C)c(-c2cc(C(=O)N3CCC(CCOc4ccccc4OC)C3)no2)c1C (stereo not given),active: 44.7 µM
5,CNC(=O)C1CCCN1Cc1ccc(-c2cc(C)cc(C)c2)cc1 (stereo not given),"inconclusive: 50.1 µM [inhibitor, partial curve, poor fit]"
6,CNC(=O)[C@@H]1CN(S(=O)(=O)C(C)C)C[C@H]1c1n[nH]c(C)n1,inactive
7,O=C(NC1CC1)[C@@H]1C[C@H](Oc2ccccc2)CN1C(=O)CC1CCCC1,"inconclusive: 89.1 µM [inhibitor, single point]"
8,CC(C)(C)C(=O)N1CCN(c2nccc(Nc3ccccc3Cl)n2)CC1,"inconclusive: 15.8 µM [inhibitor, full curve, poor fit]"
9,COc1ccc(C(=O)N2CCC3(CC2)N(C)C(=O)CS3(=O)=O)c(OC)c1,inactive
10,CC(C)c1ccc(OCC(=O)c2ccc3c(c2)N(CCCC(=O)N2CCOCC2)C(=O)CO3)cc1,active: 31.6 µM
11,CC(NC(=O)c1cc(-c2ccc(F)cc2)cn1C)c1ccccn1 (stereo not given),"inconclusive: 56.2 µM [inhibitor, partial curve, poor fit]"
12,COc1cccc(N2C(=O)NC(=NC3CCCC3)C23CCN(CCC(C)C)C3)c1 (stereo not given),"inconclusive: 79.4 µM [inhibitor, single point]"
13,Cc1ccc(C(=O)N2CCN(C(=O)c3nnn4c3COC(c3ccc(C)cc3)C4)CC2)cc1 (stereo not given),"inconclusive: 35.5 µM [inhibitor, partial curve, poor fit]"
14,CN1CCCC2(CCN(C(=O)CCCOc3ccccc3)C2)C1=O (stereo not given),inactive
15,CCCC(=O)N1CCn2c(nnc2[C@@H]2C[C@@H](O)CN2Cc2ccccc2)C1,inactive
16,C[S+](=O)([O-])N1Cc2ccccc2CC2(CCN(CCc3ccccc3)C2)C1 (stereo not given),"inconclusive: 56.2 µM [inhibitor, partial curve, poor fit]"
17,COCCCn1c(=O)c(C(=O)NCC(F)(F)F)nc2cccnc21,inactive
18,O=C(c1ccn[nH]1)N1CCC(N2C(=O)C3(CCCC3)C2c2ccccc2)CC1 (stereo not given),"inconclusive: 31.6 µM [inhibitor, partial curve, poor fit]"
19,O=C(C1CCCN1Cc1ccc(-c2cncnc2)cc1)N1CCN(Cc2ccccc2)CC1 (stereo not given),"inconclusive: 44.7 µM [inhibitor, partial curve, poor fit]"
20,O=C1c2cnc(-c3cc(F)cc(F)c3)nc2OCCN1Cc1ccc(F)cc1F,"inconclusive: 112 µM [inhibitor, partial curve, poor fit]"
21,Cc1ccc(N2CC(c3noc(-c4ccc(F)cc4Cl)n3)CC2=O)cc1 (stereo not given),"inconclusive: 50.1 µM [inhibitor, partial curve, poor fit]"

# — PubChem BioAssay AID1345083 (National Center for Advancing Translational Sciences (NCATS), 2018)
